Several values for one entry are separate records, joined by “and”; a condition that tells them apart may be missing. Equal entries are not always repeated. The shares of active, inactive and inconclusive entries below differ from those in the screen. Potencies of inconclusive entries are doubtful fits and often do not repeat. Activity calls are given as the source filed them. Unless noted, the call rests on the fitted dose curve; in most records, active means well fitted curve in the direction sought with a large enough effect in the repeat runs; inconclusive means weak or mixed curves; inactive means no such curve, though single readings can be large; an effect the other way counts as inactive or inconclusive.
What was measured:
[1] = qHTS assay to identify small molecule agonists of the estrogen receptor beta (ER-beta) signaling pathway - cell viability counter screen (AID 1259380); further: nearly all actives have a fitted effect of over 30% in size
In short: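 HEK293T ER-beta-UAS-bla; 2% CS-FBS; 6 hr pre-plate, 16 hr cpd at 37C/5% CO2; LiveBLAzer read first, then CellTiter-Glo 30 min RT, luminescence.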

[2] = qHTS assay to identify small molecule agonists of the estrogen receptor alpha (ER-alpha) signaling pathway in the presence of an antagonist - cell viability counter screen (AID 1259386);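 further: cells exposed to compounds for 22 h at 37 °C before the viability read; nearly all actives have a fitted effect of over 30% in size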
In short: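 VM7Luc4E2, stripped-serum pre-culture 5 d; 24hr plating; +ICI-182,780 10.0nM final; cpds 15 conc, 22hr, 37C/5% CO2; CellTiter-Fluor added at 21hr, fluorescence 1hr later.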

[3] = biological target: Progesterone receptor (Homo sapiens) (UniProt P06401); experiment: qHTS assay to identify small molecule agonists of the progesterone receptor (PR) signaling pathway (AID 1346784; calls by dose curve; further: nearly all actives have a fitted effect of over 30% in size; on activation: on the % scale 0 is the no-effect control and ±100 the full control effect); conditions: PR-UAS-bla HEK293T, beta-lactamase FRET ratio, 16 h; activation: at 92.4 µM (top of the series) unless noted
UniProt P06401, sequence (P06401 whole entry, looked up): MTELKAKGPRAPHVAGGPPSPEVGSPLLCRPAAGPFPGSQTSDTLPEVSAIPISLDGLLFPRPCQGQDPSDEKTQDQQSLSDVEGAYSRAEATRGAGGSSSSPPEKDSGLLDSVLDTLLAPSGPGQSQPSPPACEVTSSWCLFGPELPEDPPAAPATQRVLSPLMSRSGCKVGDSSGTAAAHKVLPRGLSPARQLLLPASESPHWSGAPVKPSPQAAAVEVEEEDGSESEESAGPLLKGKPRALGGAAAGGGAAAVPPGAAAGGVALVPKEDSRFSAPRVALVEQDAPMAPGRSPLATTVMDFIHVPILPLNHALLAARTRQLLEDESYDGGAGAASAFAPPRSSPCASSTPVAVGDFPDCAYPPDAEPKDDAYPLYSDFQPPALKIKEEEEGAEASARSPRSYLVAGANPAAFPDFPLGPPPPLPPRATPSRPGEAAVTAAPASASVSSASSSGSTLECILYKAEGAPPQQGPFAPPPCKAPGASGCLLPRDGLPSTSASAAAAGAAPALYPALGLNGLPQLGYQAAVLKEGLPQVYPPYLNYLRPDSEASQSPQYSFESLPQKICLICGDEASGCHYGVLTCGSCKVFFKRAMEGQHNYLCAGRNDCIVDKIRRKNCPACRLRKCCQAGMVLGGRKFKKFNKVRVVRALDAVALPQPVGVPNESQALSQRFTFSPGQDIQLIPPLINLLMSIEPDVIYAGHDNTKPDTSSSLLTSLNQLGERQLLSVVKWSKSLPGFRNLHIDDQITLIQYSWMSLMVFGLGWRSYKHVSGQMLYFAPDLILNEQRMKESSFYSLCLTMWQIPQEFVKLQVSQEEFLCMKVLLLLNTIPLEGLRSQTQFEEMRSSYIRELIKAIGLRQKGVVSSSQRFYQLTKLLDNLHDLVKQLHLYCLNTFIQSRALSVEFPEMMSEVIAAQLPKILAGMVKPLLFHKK
In short: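 Seed PR-UAS-bla HEK 293T cells (2% charcoal-stripped FBS), incubate 6 hr at 37C; add compounds in DMSO, 16 hr at 37C; add LiveBLAzer B/G substrate, 2 hr RT; read fluorescence intensity.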

[4] = biological target: Progesterone receptor (Homo sapiens) (UniProt P06401); experiment: qHTS assay to identify small molecule antagonists of the progesterone receptor (PR) signaling pathway (AID 1346795; active means well fitted inhibition curve with a large enough effect in the signal ratio in the repeat runs, not every such curve was filed as active; inconclusive means weak or mixed curves; the % refers to the signal ratio); conditions: PR-UAS-bla HEK293T, beta-lactamase FRET ratio, 16 h; activity change, negative = inhibition: at 92.4 µM (top of the series) unless noted
In short: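 Screening used a GripTite HEK293T line with PR-responsive UAS-beta-lactamase. Cells were challenged with compound in the presence of 1 nM R5020 final for 16 hr at 37C; B/G FRET substrate, 2 hr room temperature, fluorescence.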

[5] = qHTS assay to identify small molecule antagonists of the progesterone receptor (PR) signaling pathway - cell viability counter screen (AID 1346798); further: nearly all actives have a fitted effect of over 50% in size
In short: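 Measures cytotoxicity in parallel with the PR antagonist reporter read: HEK293T PR-UAS-bla cells get compound and R5020 for 16 hr, and remaining viable cells are quantified by CellTiter-Glo luminescence.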

[6] = qHTS assay to identify small molecule agonists of the progesterone receptor (PR) signaling pathway - cell viability counter screen (AID 1346799; calls by dose curve; further: nearly all actives have a fitted effect of over 45% in size)
In short: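 Using the same plates as the PR reporter screen, HEK293T PR-UAS-bla cells received compounds for 16 hr at 37C and were then lysed with CellTiter-Glo; luminescence was read 30 min later at room temperature.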

[7] = qHTS assay to identify small molecule antagonists of the TGF-beta/Smad signaling pathway - cell viability counter screen (AID 1346824); further: nearly all actives have a fitted effect of over 50% in size
In short: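 SBE-bla HEK 293T cells were plated overnight at 37 C, then given compounds in DMSO plus TGF-beta1 (added as 0.25 ng/mL solution) for 5 hr. After the bla read, CellTiter-Glo was added to the same wells and luminescence read after 30 min at room temperature.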

[8] = Human pregnane X receptor (PXR) small molecule agonists, qHTS cell viability counter screen (AID 1346977); further: nearly all actives have a fitted effect of over 50% in size
In short: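 After a 5hr pre-incubation, PXR-Luc HepG2 cells received compounds plus positive control in DMSO and were kept 24hr at 37C. Cell viability was quantified by fluorescence from CellTiter-Fluor added for the final hour.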

[9] = biological target: Thyrotropin receptor (Homo sapiens) (UniProt P16473); experiment: qHTS assay to identify small molecule antagonists of the thyroid stimulating hormone receptor (TSHR) signaling pathway (AID 1259385; calls by dose curve; further: nearly all actives have a fitted effect of over 20% in size; on activity change, negative = inhibition: on the % scale 0 is the no-effect control and ±100 the full control effect); conditions: TSHR-HEK293 cAMP HTRF, TSH-stimulated antagonist mode; activity change, negative = inhibition: at 92.4 µM (top of the series) unless noted
UniProt P16473, sequence (P16473 whole entry, looked up): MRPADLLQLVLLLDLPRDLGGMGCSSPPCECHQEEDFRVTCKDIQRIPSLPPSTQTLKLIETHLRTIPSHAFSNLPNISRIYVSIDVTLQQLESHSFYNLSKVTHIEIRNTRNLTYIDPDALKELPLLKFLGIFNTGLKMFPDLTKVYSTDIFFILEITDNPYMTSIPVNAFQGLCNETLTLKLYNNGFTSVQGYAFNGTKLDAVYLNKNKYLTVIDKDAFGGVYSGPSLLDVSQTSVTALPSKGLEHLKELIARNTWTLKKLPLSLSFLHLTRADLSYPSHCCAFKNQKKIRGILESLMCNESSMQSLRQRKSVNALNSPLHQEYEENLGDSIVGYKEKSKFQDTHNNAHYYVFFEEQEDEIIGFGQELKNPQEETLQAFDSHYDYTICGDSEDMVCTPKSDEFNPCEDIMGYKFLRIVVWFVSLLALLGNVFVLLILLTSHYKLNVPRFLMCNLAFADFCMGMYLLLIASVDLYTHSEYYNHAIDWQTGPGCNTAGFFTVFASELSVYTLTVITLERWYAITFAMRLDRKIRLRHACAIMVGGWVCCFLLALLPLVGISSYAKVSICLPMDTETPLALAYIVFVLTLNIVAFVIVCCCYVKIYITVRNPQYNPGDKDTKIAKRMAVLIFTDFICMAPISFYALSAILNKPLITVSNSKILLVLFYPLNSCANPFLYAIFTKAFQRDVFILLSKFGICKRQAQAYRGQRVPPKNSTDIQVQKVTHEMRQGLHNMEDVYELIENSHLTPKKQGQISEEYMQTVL
In short: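 TSHR-HEK293 cells were plated and held 18 h at 37C/5% CO2, then given compound plus Ro20-1724 and stimulated with TSH at 1.5 ng/mL final. After 30 min at room temperature, cAMP was detected with cAMP-d2/anti-cAMP-cryptate (1 h) by fluorescence.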

[10] = Caspase-3/7 induction in CHO-K1 cells by small molecules, qHTS cell viability counter screen (AID 1346979); further: nearly all actives have a fitted effect of over 35% in size
In short: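 Multiplexed with Caspase-Glo 3/7 in CHO-K1 cells, this counter screen added CellTiter-Fluor after 16hr of compound exposure and recorded fluorescence 1hr later.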

[11] = qHTS assay to identify small molecule agonists of the TGF-beta/Smad signaling pathway - cell viability counter screen (AID 1346829); further: nearly all actives have a fitted effect of over 45% in size
In short: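 In parallel with the Smad reporter read, viability of HEK 293T cells stably carrying SBE-bla is quantified by ATP luminescence following 5 hr compound treatment.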

[12] = biological target: Thyrotropin-releasing hormone receptor (Homo sapiens) (UniProt P34981); experiment: qHTS assay to identify small molecule antagonists of the thyrotropin-releasing hormone receptor (TRHR) signaling pathway (AID 1346877; active means well fitted inhibition curve with a large enough effect in the repeat runs, not every such curve was filed as active; inconclusive means weak or mixed curves)
UniProt P34981, sequence (P34981 whole entry, looked up): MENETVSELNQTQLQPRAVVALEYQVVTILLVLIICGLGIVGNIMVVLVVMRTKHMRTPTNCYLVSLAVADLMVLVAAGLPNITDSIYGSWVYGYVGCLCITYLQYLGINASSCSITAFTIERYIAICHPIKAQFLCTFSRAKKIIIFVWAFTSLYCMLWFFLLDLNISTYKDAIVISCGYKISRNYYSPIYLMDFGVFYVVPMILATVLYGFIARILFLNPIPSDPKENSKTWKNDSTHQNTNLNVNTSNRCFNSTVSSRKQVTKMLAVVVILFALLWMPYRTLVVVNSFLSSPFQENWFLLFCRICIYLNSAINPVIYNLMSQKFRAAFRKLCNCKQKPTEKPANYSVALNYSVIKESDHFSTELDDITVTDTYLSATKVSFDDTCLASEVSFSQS
In short: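 Intracellular calcium fluorescence, read kinetically every second over 3 min, reports TRH-evoked signalling in HEK293 cells carrying TRHR. Test compounds were added 5 min ahead of a 1 nM TRH challenge.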

[13] = qHTS assay to identify small molecule antagonists of the TGF-beta/Smad signaling pathway (AID 1346924; active means well fitted inhibition curve with a large enough effect in the signal ratio in the repeat runs, not every such curve was filed as active; inconclusive means weak or mixed curves; the % refers to the signal ratio); conditions: SBE-bla HEK293T, TGF-beta/Smad reporter, beta-lactamase ratio; activity, negative = inhibition: at 76.8 µM (top of the series) unless noted
In short: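 SBE-bla HEK 293T cells were plated overnight, then received compound in DMSO plus TGF-beta1 (added as a 0.25 ng/mL solution) and were incubated 5 h at 37 C. Beta-lactamase reporter activity was read after 2 h at room temperature with LiveBLAzer B/G FRET substrate (ex 405, em 460/530 nm).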

[14] = Caspase-3/7 induction in HepG2 cells by small molecules, qHTS assay (AID 1346978); further: nearly all actives have a fitted effect of over 15% in size
In short: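 Wild-type HepG2 cells (2,000/well) were settled 5 h at 37 C, 5% CO2, then exposed to compounds in DMSO for 17 h. Caspase-3/7 activity was read by luminescence 30 min after adding Caspase-Glo 3/7 reagent at room temperature.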
Potency means the concentration at half of the fitted maximal effect; tags describe the fitted curve by direction and shape or compound fluorescence and quenching.

## CO/N=C(/C1=NOCCO1)c1ccccc1Oc1ncnc(Oc2ccccc2Cl)c1F
[1]
  Potency: active: 21.7 µM
[2]
  Potency: active: 27.3 µM
[3]
  Potency: inactive
[4]
  Potency: active: 27.3 µM
[5]
  Potency: inconclusive: 1.72 µM [rising, full curve]
[6]
  Potency: inconclusive: 1.37 µM [rising, full curve]
[7]
  Potency: inconclusive: 30.9 µM [cytotoxic, partial curve, poor fit]
[8]
  Potency: active: 9.68 µM

## CC(C)(c1ccc(OCC2CO2)cc1)c1ccc(OCC2CO2)cc1 (centres undefined)
[1]
  Potency: active: 61.9 µM and inconclusive: 43.3 µM [cytotoxic, partial curve, poor fit]
[9]
  activity change, negative = inhibition: inconclusive: -4.54%
[3]
  Potency: inconclusive: 34.4 µM [rising, partial curve]
  activation: inconclusive: -10.8%
[6]
  Potency: inconclusive: 69.5 µM [cytotoxic, single point]
[8]
  Potency: inconclusive: 70.8 µM [cytotoxic, single point]
[10]
  Potency: inconclusive: 78 µM [cytotoxic, single point]

## CC(C)CC(C)(c1ccc(O)cc1)c1ccc(O)cc1
[1]
  Potency: active: 68.7 µM and active: 61.1 µM
[2]
  Potency: inconclusive: 61.1 µM [cytotoxic, single point]
[3]
  Potency: inconclusive: 61.3 µM [cytotoxic, partial curve]
  activation: inconclusive: -19.4%
[5]
  Potency: inconclusive: 48.7 µM [cytotoxic, single point] and inconclusive: 68.6 µM [cytotoxic, single point]
[6]
  Potency: inconclusive: 77.1 µM [cytotoxic, single point] and inconclusive: 77 µM [cytotoxic, single point]
[7]
  Potency: inconclusive: 24.5 µM [cytotoxic, partial curve, poor fit]
[11]
  Potency: inconclusive: 55.1 µM [cytotoxic, single point]
[12]
  Potency: inconclusive: 38.1 µM [inhibitor] and inconclusive: 38 µM [inhibitor, single point]
[13]
  activity, negative = inhibition: inconclusive: -18.2%
[8]
  Potency: active: 50.1 µM and inconclusive: 68.6 µM [cytotoxic, single point]

## CCCOCC(=Nc1ccc(Cl)cc1C(F)(F)F)n1ccnc1
[1]
  Potency: inconclusive: 68.5 µM [cytotoxic, single point]
[2]
  Potency: inconclusive: 61.1 µM [cytotoxic, partial curve]
[3]
  Potency: inconclusive: 61.1 µM [cytotoxic, partial curve]
[4]
  Potency: inconclusive: 15.3 µM
[5]
  Potency: inconclusive: 68.5 µM [cytotoxic, single point]
[6]
  Potency: inconclusive: 76.9 µM [cytotoxic]
[13]
  activity, negative = inhibition: inconclusive: -17.6%
[8]
  Potency: active: 61.1 µM
[14]
  Potency: inconclusive: 68.5 µM [activator]
[10]
  Potency: active: 48.5 µM

## O=S(=O)(Oc1ccc(Cl)cc1)c1ccc(Cl)cc1
[1]
  Potency: inactive
[9]
  Potency: inconclusive: 68.6 µM [falling, partial curve, poor fit]
  activity change, negative = inhibition: inconclusive: -15.9%
[4]
  Potency: active: 17.5 µM and active: 17.2 µM
[6]
  Potency: inconclusive: 34.4 µM [rising, partial curve]
[10]
  Potency: inactive

## O=[N+]([O-])c1ccc(Cl)c(Cl)c1Cl
[1]
  Potency: inconclusive: 60.2 µM [cytotoxic, single point]
[9]
  activity change, negative = inhibition: inconclusive: -10.7%
[5]
  Potency: inactive

## O=[N+]([O-])/C=C/c1ccccc1
[1]
  Potency: inconclusive: 17.5 µM [cytotoxic, partial curve, poor fit] and inconclusive: 24.3 µM [cytotoxic, full curve]
[9]
  Potency: active: 27.8 µM and active: 21.7 µM
[3]
  activation: inconclusive: -12.9% and inconclusive: -15.5%
[13]
  activity, negative = inhibition: inconclusive: 9.16% and inconclusive: -1.36%
[8]
  Potency: active: 24.7 µM and active: 19.3 µM
[14]
  Potency: inconclusive: 27.8 µM [activator, single point] and inconclusive: 27.3 µM [activator]
[10]
  Potency: active: 6.97 µM and active: 12.2 µM

## CCOP(=O)(NC(C)C)Oc1ccc(SC)c(C)c1 (centres undefined)
[1]
  Potency: inconclusive: 30.6 µM [cytotoxic, partial curve]
[9]
  Potency: inconclusive: 61.1 µM [falling, partial curve, poor fit]
[4]
  Potency: inconclusive: 47.2 µM
[5]
  Potency: inconclusive: 6.86 µM [rising, full curve, poor fit]
[6]
  Potency: inconclusive: 17.2 µM [rising, full curve]
[13]
  Potency: inconclusive: 38.9 µM [fluorescent, partial curve, poor fit]
[10]
  Potency: inconclusive: 68.6 µM [cytotoxic]
